Reference: the supplement of paper PMC10338343
± gives the standard deviation. The list shows a part of the results, in another mix than the full data.

The sequences below were run on MIWI (PIWIL1) piRISC loaded with piRNA #1 (30 nt) (assay: pre-steady-state target cleavage rate (min^-1); MIWI and MILI are mouse PIWI proteins and EfPiwi is from a freshwater sponge; tags in brackets are library labels; higher = faster piRNA-guided slicing of the target). Conditions: guide: piRNA #1 5'p-UGAGGUAGUAGGUUGUAUAGUAUCCAGAGG; auxiliary factor: 500 nM mouse GTSF1.
Summary of the method: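 A burst-and-steady-state fit was used to obtain the pre-steady-state cleavage rate. The input data were sequencing reads of uncleaved targets, normalised to depth and to weakly complementary targets, from a […] transcribed, DNA-blocked target RNA library mixed with 1 nM active affinity-purified piRISC holding one synthetic guide, with or without 500 nM GTSF1 partner protein, in HEPES–potassium acetate buffer at 33 °C for 0–8 or 0–960 min. Three trials were pooled and k3 was capped at 0.0001 min^-1.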
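Further: 1 nM active piRISC with 0.1 nM target library at 33 °C single turnover.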

Row | Sequence | pre-steady-state target cleavage rate
1 | GCUCUGCAUACUAUACAACCUACUUCCUCA | 0.419 ± 0.037
2 | GGAGUGGAUACUAUACAAUCUACUACCUCA | 0.396 ± 0.022
3 | GGACACGAUACUAUACAACCUACUACCUCA | 1.51 ± 0.1
4 | GCUCUGGAUACUAUACAACAUACUACCUCA | 1.47 ± 0.089
5 | GCUCUGCUUACUAUACAACCUACUACCUCA | 1.96 ± 0.12
6 | GGAGACCUAUCUAAUCAACCUACUACCUCA | 0.00495 ± 0.0024
7 | GGAGACGAUACUAUACUUCCUACUACCUCA | 0.277 ± 0.028
8 | GGUCUGGAUACGAUACAACCUACUACCUCA | 1.79 ± 0.11
9 | GGAGACCAUACUAAACAACCAACUACCUCA | 0.0501 ± 0.0091
10 | GGAGACGAUACUAUACAACCUACUUCCUCA | 0.456 ± 0.073
11 | GGAGACCUUACUAUACUACCUAGUACCUCA | 0.108 ± 0.014
12 | GGUCUGGAUACUAUACAACGUACUUCCUCA | 0.317 ± 0.048
13 | GGACUGGAUACUAUAGUUCCUACUACCUCA | 0.165 ± 0.03
14 | GCUCUGGAUACUAAACAUCCUACUACCUCA | 1.25 ± 0.081
15 | GGAGUGGAUACUAUACAACCUACUUGGUCA | < 0.0001
16 | GGAGACCUAUCUAUACAACCUUCAACCUCA | 0.0104 ± 0.0031
17 | GGAGACCUAUCUAUACAACCUUCUACGUCA | 0.11 ± 0.017
18 | GGAGACCUUACUAUACAACCUACUACACUCA | 0.735 ± 0.055
19 | GGAGAGGAUACUAUACAACCUAUCUACCUCA | 0.27 ± 0.025
20 | GGUCUGGAUACUAGACAACCUACUACCUCA | 1.6 ± 0.087

Row | Sequence | pre-steady-state target cleavage rate
21 | GGUCUGGAUACUAUACAACGUACUACCUGA | 0.352 ± 0.045
22 | CCUCUGCAUACUAUACAACCAACUACCUCA | 0.176 ± 0.018
23 | GCUCUGGAUUCUAAACAACCUACUACCUCA | 0.502 ± 0.065
24 | GGUCUGGUUUCUAUACAACCUACUACCUCA | 1.8 ± 0.12
25 | GGAGACCUAUCUAUACAACAUACUACCUCA | 0.21 ± 0.029
26 | GGAGACCAUACUUUACAACCUACUACGUCA | 0.731 ± 0.069
27 | CCUCUGCAUACUAUACAACCUACUAGCUCA | 1.23 ± 0.1
28 | GGACUGGAUACUAUACAACCUACUGCCUCA | 0.817 ± 0.097
29 | GGAGAGGAUACUAUACAACCUUACUACCUCA | 0.00535 ± 0.0028
30 | GGACUGGAUACUAUACUUCCUACUACCUCA | 0.145 ± 0.022
31 | GGACUGGAUACAAUACAACCUACUACCUCA | 1.49 ± 0.11
32 | GGUCUGGAUACUAUACAACCAACUUCCUCA | 0.00959 ± 0.0019
33 | GGAGACCUAUCUAUACAACCUACUUCCUCA | 0.199 ± 0.024
34 | GGAGAGGAUACUUUACAACCUACAACCUCA | 0.34 ± 0.049
35 | GGAGACGAUACUAUAUCAACCUACUACCUCA | 0.439 ± 0.058
36 | GGACUGGAAUCUAUACAACCUACUACCUCA | 1.11 ± 0.12
37 | GGAGAGGAUACUAUAGAAGCUACUACCUCA | 0.241 ± 0.024
38 | GGAGAGGAUACUAUACAACCUACUUCCUCA | 0.217 ± 0.051
39 | GGAGACCAUACUAUAGAUCCUACUACCUCA | 0.501 ± 0.051
40 | CCUCUGGAUACUAUACAAGCAACUACCUCA | 0.0413 ± 0.0084
